According to PMC3988004:
Results are given in words; binding and its absence hold for the method and conditions named. In cells and extracts the contact can be indirect. Some entries that bind do so weakly or less than the wild type. For some of these results: Tags and fused reporters may be left off the sequences shown.

Protein sequences, listed by entry. Tags and fused reporters are not part of them.
UniProt Q9WTL8: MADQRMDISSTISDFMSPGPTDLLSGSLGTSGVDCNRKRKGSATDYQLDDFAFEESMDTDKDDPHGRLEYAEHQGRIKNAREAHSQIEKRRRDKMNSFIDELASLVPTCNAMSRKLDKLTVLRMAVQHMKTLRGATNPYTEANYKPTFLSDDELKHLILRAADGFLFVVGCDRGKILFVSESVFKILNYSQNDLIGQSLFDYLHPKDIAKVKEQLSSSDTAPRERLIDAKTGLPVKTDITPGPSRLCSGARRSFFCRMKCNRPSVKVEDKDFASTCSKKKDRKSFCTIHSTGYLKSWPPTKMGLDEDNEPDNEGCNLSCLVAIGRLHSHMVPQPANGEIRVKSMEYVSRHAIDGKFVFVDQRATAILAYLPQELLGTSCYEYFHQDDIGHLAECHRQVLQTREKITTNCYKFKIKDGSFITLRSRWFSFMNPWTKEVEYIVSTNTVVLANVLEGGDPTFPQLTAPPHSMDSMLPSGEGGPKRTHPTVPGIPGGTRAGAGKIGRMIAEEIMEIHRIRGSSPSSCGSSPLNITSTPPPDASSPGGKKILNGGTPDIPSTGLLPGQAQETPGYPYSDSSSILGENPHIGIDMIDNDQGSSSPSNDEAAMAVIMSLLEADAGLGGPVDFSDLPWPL
UniProt O35185: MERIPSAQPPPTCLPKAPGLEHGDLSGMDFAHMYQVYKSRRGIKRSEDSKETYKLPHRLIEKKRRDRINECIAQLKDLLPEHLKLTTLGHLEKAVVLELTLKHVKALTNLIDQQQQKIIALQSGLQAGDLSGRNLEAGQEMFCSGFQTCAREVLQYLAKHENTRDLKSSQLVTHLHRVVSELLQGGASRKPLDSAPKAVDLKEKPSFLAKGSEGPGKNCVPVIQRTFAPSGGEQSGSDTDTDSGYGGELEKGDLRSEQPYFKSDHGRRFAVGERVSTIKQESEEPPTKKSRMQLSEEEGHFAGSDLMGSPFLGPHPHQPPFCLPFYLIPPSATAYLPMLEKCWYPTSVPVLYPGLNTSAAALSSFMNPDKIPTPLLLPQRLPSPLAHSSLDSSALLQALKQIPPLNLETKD
UniProt Q99PV5: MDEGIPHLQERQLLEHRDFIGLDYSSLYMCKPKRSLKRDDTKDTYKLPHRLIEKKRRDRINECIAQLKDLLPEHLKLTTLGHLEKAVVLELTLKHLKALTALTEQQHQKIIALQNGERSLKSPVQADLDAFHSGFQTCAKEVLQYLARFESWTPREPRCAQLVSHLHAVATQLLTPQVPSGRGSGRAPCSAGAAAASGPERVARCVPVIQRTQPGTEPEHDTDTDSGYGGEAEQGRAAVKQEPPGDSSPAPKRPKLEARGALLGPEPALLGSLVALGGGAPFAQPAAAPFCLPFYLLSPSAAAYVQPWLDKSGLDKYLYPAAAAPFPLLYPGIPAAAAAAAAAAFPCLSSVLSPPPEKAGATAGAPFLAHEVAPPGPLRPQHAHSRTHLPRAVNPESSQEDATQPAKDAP
UniProt O09106: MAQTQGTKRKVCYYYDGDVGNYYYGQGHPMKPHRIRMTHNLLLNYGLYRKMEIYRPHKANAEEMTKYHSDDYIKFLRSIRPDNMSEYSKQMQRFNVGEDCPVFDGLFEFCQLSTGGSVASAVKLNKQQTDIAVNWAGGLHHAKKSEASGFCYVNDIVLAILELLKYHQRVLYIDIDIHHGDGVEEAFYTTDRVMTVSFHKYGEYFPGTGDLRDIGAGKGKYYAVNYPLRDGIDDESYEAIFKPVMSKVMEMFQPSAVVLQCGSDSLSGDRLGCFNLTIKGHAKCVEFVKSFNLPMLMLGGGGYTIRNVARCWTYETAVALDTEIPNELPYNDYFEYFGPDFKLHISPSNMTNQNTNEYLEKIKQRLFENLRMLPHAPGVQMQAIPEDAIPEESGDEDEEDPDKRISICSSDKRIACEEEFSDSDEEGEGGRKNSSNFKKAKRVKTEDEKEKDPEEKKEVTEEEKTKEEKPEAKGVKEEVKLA
UniProt O35973: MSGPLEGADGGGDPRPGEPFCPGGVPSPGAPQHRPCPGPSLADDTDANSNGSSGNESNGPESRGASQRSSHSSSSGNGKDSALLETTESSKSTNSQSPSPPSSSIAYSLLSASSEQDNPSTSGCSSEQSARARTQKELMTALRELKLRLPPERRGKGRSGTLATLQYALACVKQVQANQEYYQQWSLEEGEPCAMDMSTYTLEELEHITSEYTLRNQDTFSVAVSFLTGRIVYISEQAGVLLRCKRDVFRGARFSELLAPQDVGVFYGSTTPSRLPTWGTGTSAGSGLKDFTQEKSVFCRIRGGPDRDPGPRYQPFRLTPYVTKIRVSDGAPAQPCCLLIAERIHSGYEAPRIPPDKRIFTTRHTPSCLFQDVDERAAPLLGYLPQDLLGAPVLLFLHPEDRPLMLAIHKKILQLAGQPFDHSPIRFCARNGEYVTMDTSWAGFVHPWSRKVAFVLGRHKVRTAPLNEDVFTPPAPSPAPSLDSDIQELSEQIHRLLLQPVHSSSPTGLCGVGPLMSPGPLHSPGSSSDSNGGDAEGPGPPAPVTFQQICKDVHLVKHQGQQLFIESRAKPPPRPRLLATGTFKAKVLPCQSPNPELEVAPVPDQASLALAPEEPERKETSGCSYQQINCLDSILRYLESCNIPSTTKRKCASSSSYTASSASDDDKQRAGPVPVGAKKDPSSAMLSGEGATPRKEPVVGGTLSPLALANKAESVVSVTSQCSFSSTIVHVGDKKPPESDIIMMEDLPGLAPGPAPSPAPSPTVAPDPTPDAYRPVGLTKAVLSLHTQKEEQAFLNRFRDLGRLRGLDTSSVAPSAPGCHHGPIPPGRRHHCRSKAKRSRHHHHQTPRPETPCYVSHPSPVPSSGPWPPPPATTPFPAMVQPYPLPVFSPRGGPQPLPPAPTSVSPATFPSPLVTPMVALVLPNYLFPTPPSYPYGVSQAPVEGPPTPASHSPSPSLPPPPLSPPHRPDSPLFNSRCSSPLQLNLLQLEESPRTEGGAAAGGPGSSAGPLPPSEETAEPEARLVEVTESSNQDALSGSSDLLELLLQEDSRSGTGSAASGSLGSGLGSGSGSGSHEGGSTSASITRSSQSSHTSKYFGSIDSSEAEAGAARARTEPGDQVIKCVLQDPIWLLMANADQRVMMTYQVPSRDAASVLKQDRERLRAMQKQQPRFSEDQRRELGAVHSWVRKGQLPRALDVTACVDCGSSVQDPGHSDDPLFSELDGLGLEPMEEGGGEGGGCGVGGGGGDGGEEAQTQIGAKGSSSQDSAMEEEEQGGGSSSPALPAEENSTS
UniProt O54943: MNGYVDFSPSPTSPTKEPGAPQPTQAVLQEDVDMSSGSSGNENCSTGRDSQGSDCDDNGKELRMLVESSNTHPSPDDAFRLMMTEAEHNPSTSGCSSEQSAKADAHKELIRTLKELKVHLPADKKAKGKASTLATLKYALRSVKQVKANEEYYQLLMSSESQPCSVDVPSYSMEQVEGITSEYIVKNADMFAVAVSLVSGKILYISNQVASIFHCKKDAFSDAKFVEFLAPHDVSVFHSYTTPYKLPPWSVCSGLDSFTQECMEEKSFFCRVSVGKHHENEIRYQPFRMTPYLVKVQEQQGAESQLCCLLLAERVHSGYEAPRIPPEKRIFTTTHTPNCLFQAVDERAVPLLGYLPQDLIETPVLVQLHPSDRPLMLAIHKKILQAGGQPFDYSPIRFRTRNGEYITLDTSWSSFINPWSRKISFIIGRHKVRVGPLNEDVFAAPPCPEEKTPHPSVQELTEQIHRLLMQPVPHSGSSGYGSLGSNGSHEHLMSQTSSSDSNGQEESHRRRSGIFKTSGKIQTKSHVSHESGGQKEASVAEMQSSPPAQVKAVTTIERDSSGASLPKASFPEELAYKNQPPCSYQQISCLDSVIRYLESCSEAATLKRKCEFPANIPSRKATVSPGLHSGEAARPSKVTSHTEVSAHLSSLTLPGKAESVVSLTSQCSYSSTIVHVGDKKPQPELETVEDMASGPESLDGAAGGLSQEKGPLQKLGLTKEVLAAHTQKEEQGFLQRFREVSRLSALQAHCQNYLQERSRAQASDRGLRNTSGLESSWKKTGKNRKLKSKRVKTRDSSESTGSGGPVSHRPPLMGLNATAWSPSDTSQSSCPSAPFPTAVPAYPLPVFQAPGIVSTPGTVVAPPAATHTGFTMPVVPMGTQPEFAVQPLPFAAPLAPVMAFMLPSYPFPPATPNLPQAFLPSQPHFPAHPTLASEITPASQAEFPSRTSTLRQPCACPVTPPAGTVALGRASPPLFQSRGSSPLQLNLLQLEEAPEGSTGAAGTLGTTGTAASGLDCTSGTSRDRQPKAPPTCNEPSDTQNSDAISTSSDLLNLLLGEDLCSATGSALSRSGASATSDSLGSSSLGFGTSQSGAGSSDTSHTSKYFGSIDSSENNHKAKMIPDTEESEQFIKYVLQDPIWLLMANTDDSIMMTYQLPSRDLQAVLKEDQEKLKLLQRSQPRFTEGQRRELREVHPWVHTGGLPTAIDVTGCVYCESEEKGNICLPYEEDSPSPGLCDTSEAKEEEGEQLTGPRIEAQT
UniProt P06537: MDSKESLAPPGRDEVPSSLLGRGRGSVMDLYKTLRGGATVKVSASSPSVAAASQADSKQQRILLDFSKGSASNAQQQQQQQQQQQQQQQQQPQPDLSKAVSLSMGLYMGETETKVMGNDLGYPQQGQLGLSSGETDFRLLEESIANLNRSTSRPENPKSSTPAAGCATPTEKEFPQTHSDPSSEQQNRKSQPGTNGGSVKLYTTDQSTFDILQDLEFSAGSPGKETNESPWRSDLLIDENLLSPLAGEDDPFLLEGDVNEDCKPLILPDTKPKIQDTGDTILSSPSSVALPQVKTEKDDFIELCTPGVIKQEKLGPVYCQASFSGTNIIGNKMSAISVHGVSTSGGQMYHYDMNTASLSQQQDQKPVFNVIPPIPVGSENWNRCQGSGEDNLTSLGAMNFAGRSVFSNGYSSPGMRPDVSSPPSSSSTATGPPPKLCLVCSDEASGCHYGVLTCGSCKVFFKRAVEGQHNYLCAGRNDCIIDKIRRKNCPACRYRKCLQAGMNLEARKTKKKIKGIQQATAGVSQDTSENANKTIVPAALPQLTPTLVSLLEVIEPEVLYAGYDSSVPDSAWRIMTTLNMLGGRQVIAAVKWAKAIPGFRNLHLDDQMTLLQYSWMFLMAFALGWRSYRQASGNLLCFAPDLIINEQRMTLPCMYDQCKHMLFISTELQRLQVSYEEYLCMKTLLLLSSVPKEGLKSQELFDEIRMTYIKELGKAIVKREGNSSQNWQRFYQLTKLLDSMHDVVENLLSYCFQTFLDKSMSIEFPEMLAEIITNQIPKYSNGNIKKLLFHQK

T1: CHRONO (endogenous, mouse liver) (mouse (endogenous in mouse liver)) (UniProt Q3TQ03)
T1 sequence: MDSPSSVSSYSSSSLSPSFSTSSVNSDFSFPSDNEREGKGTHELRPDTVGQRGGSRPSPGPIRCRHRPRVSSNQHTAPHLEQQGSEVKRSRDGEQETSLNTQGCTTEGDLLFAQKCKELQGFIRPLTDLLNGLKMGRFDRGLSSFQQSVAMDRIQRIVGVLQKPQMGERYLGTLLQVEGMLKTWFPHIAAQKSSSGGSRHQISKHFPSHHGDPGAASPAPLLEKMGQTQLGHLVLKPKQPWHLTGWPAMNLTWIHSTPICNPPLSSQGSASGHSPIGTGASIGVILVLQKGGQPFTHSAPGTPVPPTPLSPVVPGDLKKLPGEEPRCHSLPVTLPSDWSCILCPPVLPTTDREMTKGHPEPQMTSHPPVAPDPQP

T2: CHRONO (tagged, expressed in COS7 cells) (mouse) (UniProt Q3TQ03)
T2 sequence: T1 sequence

T3: CHRONO–HA (mouse) (UniProt Q3TQ03)
T3 sequence: T1 sequence

B1: CRY2 (tagged, expressed in COS7 cells) (protein, UniProt Q9R194 1-592)
chain: MAAAAVVAATVPAQSMGADGASSVHWFRKGLRLHDNPALLAAVRGARCVRCVYILDPWFAASSSVGINRWRFLLQSLEDLDTSLRKLNSRLFVVRGQPADVFPRLFKEWGVTRLTFEYDSEPFGKERDAAIMKMAKEAGVEVVTENSHTLYDLDRIIELNGQKPPLTYKRFQALISRMELPKKPAVAVSSQQMESCRAEIQENHDDTYGVPSLEELGFPTEGLGPAVWQGGETEALARLDKHLERKAWVANYERPRMNANSLLASPTGLSPYLRFGCLSCRLFYYRLWDLYKKVKRNSTPPLSLFGQLLWREFFYTAATNNPRFDRMEGNPICIQIPWDRNPEALAKWAEGKTGFPWIDAIMTQLRQEGWIHHLARHAVACFLTRGDLWVSWESGVRVFDELLLDADFSVNAGSWMWLSCSAFFQQFFHCYCPVGFGRRTDPSGDYIRRYLPKLKGFPSRYIYEPWNAPESVQKAAKCIIGVDYPRPIVNHAETSRLNIERMKQIYQQLSRYRGLCLLASVPSCVEDLSHPVAEPGSSQAGSISNTGPRALSSGPASPKRKLEAAEEPPGEELTKRARVTEMPTQEPASKDS
B2: CRY1 (tagged, expressed in COS7 cells) (protein, UniProt P97784 1-606)
chain: MGVNAVHWFRKGLRLHDNPALKECIQGADTIRCVYILDPWFAGSSNVGINRWRFLLQCLEDLDANLRKLNSRLFVIRGQPADVFPRLFKEWNITKLSIEYDSEPFGKERDAAIKKLATEAGVEVIVRISHTLYDLDKIIELNGGQPPLTYKRFQTLVSKMEPLEMPADTITSDVIGKCMTPLSDDHDEKYGVPSLEELGFDTDGLSSAVWPGGETEALTRLERHLERKAWVANFERPRMNANSLLASPTGLSPYLRFGCLSCRLFYFKLTDLYKKVKKNSSPPLSLYGQLLWREFFYTAATNNPRFDKMEGNPICVQIPWDKNPEALAKWAEGRTGFPWIDAIMTQLRQEGWIHHLARHAVACFLTRGDLWISWEEGMKVFEELLLDADWSINAGSWMWLSCSSFFQQFFHCYCPVGFGRRTDPNGDYIRRYLPVLRGFPAKYIYDPWNAPEGIQKVAKCLIGVNYPKPMVNHAEASRLNIERMKQIYQQLSRYRGLGLLASVPSNSNGNGGLMGYAPGENVPSCSSSGNGGLMGYAPGENVPSCSGGNCSQGSGILHYAHGDSQQTHSLKQGRSSAGTGLSSGKRPSQEEDAQSVGPKVQRQSSN

How the values were obtained:
[1] = target: T1, CHRONO (endogenous, mouse liver) (mouse (endogenous in mouse liver)); assay: co-IP; endogenous proteins; IP with the CHRONO antibody from mouse liver lysate, blot for BMAL1; Chrono-deficient mouse liver as control
[2] = target: T2, CHRONO (tagged, expressed in COS7 cells) (mouse); assay: co-IP; COS7 cells transfected with tagged proteins, lysed in TNE buffer with protease inhibitor; precleared with Dynabeads Protein G; IP with anti-HA, anti-Flag or anti-c-Myc antibodies; Western blot with anti-tag antibodies
CHRONO–HA (mouse) = target: T3, CHRONO–HA (mouse); assay: as above
[3] = target: T1, CHRONO (endogenous, mouse liver) (mouse (endogenous in mouse liver)); assay: co-IP; endogenous proteins; IP-Western from WT mouse liver at ZT 6 and 12

| Molecule | binding [2] | other results |
| --- | --- | --- |
| BMAL1 (endogenous, mouse liver) (from UniProt Q9WTL8 1-632) | – | binding [1]: binds |
| BMAL1 (tagged, expressed in COS7 cells) (from UniProt Q9WTL8 1-632) | binds | – |
| DEC1 (tagged, expressed in COS7 cells) (from UniProt O35185 1-411) | no binding | – |
| DEC2 (tagged, expressed in COS7 cells) (from UniProt Q99PV5 1-410) | binds | – |
| HDAC1–FLAG (from UniProt O09106 1-482) (enzyme) | – | binding (CHRONO–HA (mouse)): binds |
| PER1 (tagged, expressed in COS7 cells) (from UniProt O35973 1-1291) | no binding | – |
| PER2 (tagged, expressed in COS7 cells) (from UniProt O54943 1-1257) | binds | – |
| glucocorticoid receptor (endogenous, mouse liver) (from UniProt P06537 1-792) | – | binding [3]: binds |
| B1 | binds | – |
| B2 | no binding | – |
